# In PubChem BioAssay AID1345082 (National Center for Advancing Translational Sciences (NCATS), 2018):
# Out of some 94,000 compounds screened, about 4,000 (4.3%) were called active. The shares of active, inactive and inconclusive entries below differ from those in the screen. Calls come from the whole dose curve; as a rule, active = well fitted inhibition curve with a large enough effect; inconclusive = small, poorly fitted or top-dose-only effect; inactive = no such curve, though single readings can be large or run the other way. Potencies beside an inconclusive call are fits to weak or partial responses and may not hold up.
# Assay: Cytotoxic Profiling in NIH 3T3 Cell Line of Diverse Libraries Using Quantitative High-Throughput Screening; note: nearly all actives have a fitted effect of over 55% in size
# Details: NIH 3T3 viability, CellTiter-Glo ATP luminescence, 48-72 h; series mostly up to 96.7 µM
# Outline: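 NIH 3T3 cells at 400 cells/well received 23 nL of compound by pintool and were incubated 48 or 72 h at 37 °C. Viability was read as ATP-coupled CellTiter-Glo luminescence.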
# Potency is the fitted concentration of half-maximal effect; tags give direction and shape of the fitted curve.
row,Structure (SMILES),Potency
1,COc1cccc(-c2cn3cc(C(=O)NCC4CCCCC4)nc3s2)c1,"inconclusive: 44.7 µM [inhibitor, partial curve, poor fit]"
2,CN1CCC(CNC(=O)c2cc(-c3ccc(F)cc3)cc3ncn(C)c23)CC1=O (centres undefined),"inconclusive: 100 µM [inhibitor, single point]"
3,O=C1NCc2ccccc2CC12CCCN(Cc1ccnc3ccccc13)C2 (centres undefined),"inconclusive: 35.5 µM [inhibitor, partial curve, poor fit]"
4,O=C(NCc1ccccc1)c1ccc2nnc(-c3cc(C(F)(F)F)cc(C(F)(F)F)c3)n2c1,"inconclusive: 44.7 µM [inhibitor, partial curve, poor fit]"
5,Cc1ccc(Nc2ccnc(N3CCC(NC(=O)C4CCCC4)CC3)n2)cc1,"inconclusive: 44.7 µM [inhibitor, partial curve, poor fit]"
6,O=C1N2CCCC2CN1C1CCN(Cc2ccccc2)CC1 (centres undefined),inactive
7,CCc1cn[nH]c1C1CCCN(C(=O)c2cccnc2SC)C1 (centres undefined),inactive
8,CC(NC(=O)c1csc2nc(-c3cccc(C(F)(F)F)c3)cn12)c1ccncn1 (centres undefined),"inconclusive: 50.1 µM [inhibitor, partial curve, poor fit]"
9,O=C(NC[C@H]1O[C@H](Cc2cc(CN3CCOCC3)on2)CC[C@@H]1O)c1cccc(F)c1,"inconclusive: 126 µM [inhibitor, single point]"
10,COc1ccc(CN2CCCC(COc3ccccc3C(=O)NC(C)C)C2)c(OC)c1 (centres undefined),inactive
11,COCCNC(=O)[C@H]1C[C@H](Oc2ccccc2)CN1C(=O)c1ccco1,inactive
12,O=C(N1CCN(Cc2ccc(Cl)c(Cl)c2)CC1)C12CNCC1CNC2 (centres undefined),"inconclusive: 50.1 µM [inhibitor, partial curve, poor fit]"
13,CC1=C[C@@H](CNS(=O)(=O)c2ccc(Cl)cc2)[C@H](C(C)C)C[C@H]1CC(=O)N1CCOCC1,active: 31.6 µM
14,Cn1nccc1-c1ccc2ncn(Cc3ccccc3)c(=O)c2n1,"inconclusive: 79.4 µM [inhibitor, partial curve, poor fit]"
15,O=C(CN1CCCCCC1)N1CCC(N2C(=O)C3(CCCC3)C2c2ccccc2)CC1 (centres undefined),inactive
16,COc1ccc(C(=O)N2CCCC(C(=O)N3CCC4(CC3)CC(=O)Nc3ccccc3O4)C2)cc1 (centres undefined),inactive
17,O=C(CCN1CCCCO1)N1CCOC(CC2CCCCC2)C1 (centres undefined),inactive
18,F[C@@H]1CN(Cc2ccc(C(F)(F)F)cc2)C[C@@H]1OCc1nc2ncccc2[nH]1,"inconclusive: 56.2 µM [inhibitor, partial curve, poor fit]"
19,CCOC(=O)C1CCCN(C(=O)c2cc3c(s2)CN(C2CCCC2)C3)C1 (centres undefined),"inconclusive: 50.1 µM [inhibitor, partial curve, poor fit]"
20,COc1ccc(NC(=O)N[C@H]2[C@H](O)[C@@H](Oc3ccccc3)[C@@H]3OC[C@H]2O3)cc1,inactive
21,OC1CC(c2cc(NCCCn3ccc4ccccc43)ncn2)C1 (centres undefined),"inconclusive: 20 µM [inhibitor, full curve, poor fit]"
22,CC(=O)Nc1cccc(OCc2nc3c(n2Cc2ccccc2)C(=O)N(Cc2ccccc2F)CCN3)c1,"inconclusive: 50.1 µM [inhibitor, partial curve, poor fit]"
23,O=C(NCCc1ccccc1)c1nc2sccn2c1-c1cccnc1,"inconclusive: 56.2 µM [inhibitor, partial curve, poor fit]"

row,Structure (SMILES),Potency
1,O=C(C[C@@H]1CCNC[C@@H]1Cc1cc(CSc2ccccc2)on1)Nc1ccccc1,active: 70.8 µM
2,CN(C)CCNC(=O)c1nc2nc(-c3ccccc3)c(-c3cccc(F)c3)cc2n1C,active: 25.1 µM
3,COc1ccc(CNC(=O)CCC2CCCN(C(=O)CN3CCOC3=O)C2)c(OC)c1 (centres undefined),inactive
4,CCOC(=O)C1CCN(C(=O)CC2CCN(c3ccnc(OC)n3)CC2)CC1,"inconclusive: 39.8 µM [inhibitor, partial curve]"
5,CC1Oc2ccc(NC(=O)c3ccc(F)cc3F)cc2CN(Cc2ccc(Cl)cc2)C1=O (centres undefined),"inconclusive: 50.1 µM [inhibitor, partial curve, poor fit]"
6,COc1ccc(Cl)cc1C(=O)N1CCC(N2CC3CC(C2)[C@H]2CCCC(=O)N2C3)CC1 (some centres undefined),inactive
7,CN(C)C(=O)N1CCn2nc(CNC(=O)c3cc4ccccc4n3C)cc2C1,inactive
8,COC(=O)N1CCCC(N2C(=O)c3c(c(C)nn3-c3ccccc3)C2C)C1 (centres undefined),inactive
9,O=C(c1cccc(OC2CN(Cc3cccc(F)c3F)C2)c1)N1CCOCC1,inactive
10,O=C1NCCCCCN(S(=O)(=O)c2ccc3c(c2)CCC3)[C@H]2CCCC[C@@H]12,"inconclusive: 50.1 µM [inhibitor, partial curve, poor fit]"
11,O=C(NC1CCCCC1)C1CCCN1C(=O)c1cccc(-c2cccnc2)c1 (centres undefined),inactive
12,O=C(NC1CC1)c1ccccc1OC1CN(Cc2ccc(F)cc2F)C1,"inconclusive: 50.1 µM [inhibitor, partial curve, poor fit]"
13,COc1ccccc1Nc1ccnc(N2CCCC(C(=O)N3CCCCC3)C2)n1 (centres undefined),active: 35.5 µM
14,COc1ccc(C(=O)N2CCn3c(nn(-c4ccc(C(F)(F)F)cc4)c3=O)C2)cc1,inactive
15,COc1cccc(-c2cc(C(=O)Nc3ccc(F)cc3)c3cnn(C)c3n2)c1,inactive
16,CC(C)S(=O)(=O)NCC1CN(CC2CC2)CC12CCCCC2 (centres undefined),inactive
17,CC1CCN(CC2CCCN(C(=O)COc3ccc(F)cc3)CC2)CC1 (centres undefined),inactive
18,O=C(Nc1ccc(-c2nnc3n2CCCC3)cc1)c1ccn[nH]1,inactive
19,COc1ccc(N(C)C2CN(C(=O)OC(C)(C)C)C2)cc1,inactive
20,COc1cccc(-c2nc(C3CC(=O)N(c4ccc(F)cc4)C3)no2)c1 (centres undefined),"inconclusive: 50.1 µM [inhibitor, single point]"
21,C=CCN1CCN(C(=O)CCC[C@H]2NC[C@@H]3C[C@H]2CN(Cc2ccccc2)C3)CC1,inactive
22,O=C(CC1CCCC1)N1CCC2(CC1)CC(N(Cc1ccc(F)cc1)C1CC1)CCO2 (centres undefined),"inconclusive: 44.7 µM [inhibitor, partial curve, poor fit]"
23,O[C@H]1CC[C@@H](Cc2cc(-c3ccccc3)on2)O[C@@H]1CNC1CCNCC1,inactive

row,Structure (SMILES),Potency
1,CCOC(=O)c1ccc(NC(=O)Cn2c(C)cc3nc4n(c(=O)c32)CCCC4)cc1,"inconclusive: 50.1 µM [inhibitor, single point]"
2,N#Cc1ccc(S(=O)(=O)N2CC[C@@H]3C(=O)NCCCCCCN(Cc4ccncc4)[C@@H]3C2)cc1,"inconclusive: 44.7 µM [inhibitor, partial curve, poor fit]"
3,Fc1ccc(NC(=S)N[C@H]2CO[C@H]3[C@@H]2OC[C@@H]3n2nnnc2-c2ccccc2)cc1,"inconclusive: 56.2 µM [inhibitor, partial curve, poor fit]"
4,CCOc1ccccc1NC(=O)Cn1c(N2CCC(C)CC2)nc(C)cc1=O,"inconclusive: 50.1 µM [inhibitor, partial curve, poor fit]"
5,O=C(Nc1cc(F)cc(F)c1)N1CCC(CCNC(=O)C2(c3ccccc3)CC2)CC1,active: 31.6 µM
6,Cc1cc2c(-c3ccccc3)nc(-c3c(C)noc3C)cc2[nH]1,"inconclusive: 56.2 µM [inhibitor, partial curve, poor fit]"
7,Cc1noc(C)c1COc1ccc(C(=O)N[C@@H]2CN(C(=O)NC(C)C)CCC[C@H]2O)cc1,"inconclusive: 44.7 µM [inhibitor, partial curve, poor fit]"
8,O=C(COc1ccc(F)cc1)N1CCCC(c2noc(COc3ccccc3)n2)C1 (centres undefined),"inconclusive: 50.1 µM [inhibitor, partial curve, poor fit]"
9,CC(C)CCN1CCn2c(nnc2-c2cccnc2)C1,inactive
10,CC(C)CC(=O)N1C(C(=O)NCC2CCCO2)COC12CCCC(C)C2 (centres undefined),inactive
11,O=C(Nc1ccc(F)cc1F)c1cnc(-c2ccc(F)cc2)nc1-c1ccncc1,inactive
12,Cc1ccccc1CN1C[C@H](O)C[C@H]1c1nc(-c2ccncc2)no1,"inconclusive: 63.1 µM [inhibitor, full curve, poor fit]"
13,COc1ccc(C(=O)N2C[C@@H]3OCC(=O)N(Cc4ccccc4)[C@@H]3C2)cc1,inactive
14,Cn1cc2c3c(cccc31)CN(C(=O)C1CCC1)CC2,inactive
15,COc1ccc(CN2CCC3(CC2)CC(c2cccc(C(F)(F)F)c2)=NO3)cc1,"inconclusive: 50.1 µM [inhibitor, partial curve, poor fit]"
16,NS(=O)(=O)c1ccc(-n2nc(-c3ccncc3)nc2C2CCOC2)cc1 (centres undefined),"inconclusive: 79.4 µM [inhibitor, single point]"
17,Cc1nc2c(c(-c3ccc(O)cc3)n1)CCN(C(=O)c1ccccc1)CC2,inactive
18,Cn1nccc1-c1ccc2ncn(-c3ccc(F)cc3F)c(=O)c2n1,"inconclusive: 44.7 µM [inhibitor, partial curve, poor fit]"
19,COc1ccc(N2Cc3c(NCc4cccs4)ncnc3N(C)CC2=O)cc1,inactive
20,O=C(NCc1ccsc1)C1CN(c2cccc(Cl)c2)C(=O)N1 (centres undefined),"inconclusive: 44.7 µM [inhibitor, partial curve]"
21,CN1c2cc(C(=O)Nc3cccc(C#N)c3)ccc2C(=O)N2CCCCCC21 (centres undefined),"inconclusive: 50.1 µM [inhibitor, partial curve, poor fit]"
22,Cc1ccc(N2CC(c3noc(C4CCN(C(=O)c5ccccc5)CC4)n3)CC2=O)cc1 (centres undefined),inactive
23,O=C(c1ccoc1)N1CCC(n2cc(-c3nc(-c4ccccc4)no3)nn2)CC1,"inconclusive: 44.7 µM [inhibitor, partial curve]"
